# Reference: publication PMC4336329 (PLoS ONE, 2015)
# The campaign covered roughly 310,000 compounds. About 14,000 (4.5%) showed an effect of 50% or more. The effect is printed as a negative number. The list shows a part of the results.
# Biological target: human ether-à-go-go-related gene (hERG) potassium channel (human, UniProt Q12809)
# Experiment: primary screen, population patch clamp on CHO cells stably expressing hERG
# 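Note: peak tail current of the secondary pulse compared with the same well before compound.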
# human ether-à-go-go-related gene (hERG) potassium channel, sequence (Q12809 whole entry, looked up): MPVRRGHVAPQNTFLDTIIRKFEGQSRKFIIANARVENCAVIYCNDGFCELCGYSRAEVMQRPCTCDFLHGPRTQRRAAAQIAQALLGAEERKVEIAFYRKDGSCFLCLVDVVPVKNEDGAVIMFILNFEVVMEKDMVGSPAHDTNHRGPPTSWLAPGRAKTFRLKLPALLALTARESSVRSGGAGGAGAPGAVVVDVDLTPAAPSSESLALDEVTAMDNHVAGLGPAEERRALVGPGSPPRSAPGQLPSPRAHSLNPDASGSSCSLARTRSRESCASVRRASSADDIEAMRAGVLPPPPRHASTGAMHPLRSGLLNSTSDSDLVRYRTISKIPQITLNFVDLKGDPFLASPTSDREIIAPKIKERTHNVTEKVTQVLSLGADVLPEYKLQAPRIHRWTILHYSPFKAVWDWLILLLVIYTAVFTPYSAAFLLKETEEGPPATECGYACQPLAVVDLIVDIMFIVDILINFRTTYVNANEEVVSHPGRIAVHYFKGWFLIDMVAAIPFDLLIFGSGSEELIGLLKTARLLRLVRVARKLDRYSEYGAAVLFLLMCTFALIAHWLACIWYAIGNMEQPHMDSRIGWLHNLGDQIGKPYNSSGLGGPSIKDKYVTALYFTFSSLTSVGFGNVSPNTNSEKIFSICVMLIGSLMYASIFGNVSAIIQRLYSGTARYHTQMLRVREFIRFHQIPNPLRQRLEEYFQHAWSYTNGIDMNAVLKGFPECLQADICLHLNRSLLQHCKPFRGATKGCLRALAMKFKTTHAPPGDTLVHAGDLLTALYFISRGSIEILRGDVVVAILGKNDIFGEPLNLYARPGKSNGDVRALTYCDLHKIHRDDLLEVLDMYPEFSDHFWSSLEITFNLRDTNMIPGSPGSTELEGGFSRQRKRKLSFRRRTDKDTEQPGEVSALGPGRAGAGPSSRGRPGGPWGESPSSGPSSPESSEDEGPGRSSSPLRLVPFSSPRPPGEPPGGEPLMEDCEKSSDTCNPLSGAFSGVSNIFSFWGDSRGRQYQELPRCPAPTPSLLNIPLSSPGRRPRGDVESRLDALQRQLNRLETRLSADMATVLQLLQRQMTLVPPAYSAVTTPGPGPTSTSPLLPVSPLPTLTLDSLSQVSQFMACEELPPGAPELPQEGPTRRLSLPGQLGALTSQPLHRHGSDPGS
row,Compound,"hERG current change (%, negative = inhibition) at 10uM"
1,COC(=O)C1CCN(c2cc(=O)n(Cc3ccc(F)cc3)c(=O)[nH]2)CC1,-12.8%
2,O=C(/C=C/c1ccccc1)c1ccccn1,12.5%
3,CCCCN(C)S(=O)(=O)c1cc2c3c(c1)CCC(=O)N3CCC2,-16%
4,C=CCN1C(=O)/C(=c2\sc3nc(=O)c(Cc4ccc(OC)c(OC)c4)nn3c2=O)c2ccccc21,16%
5,CC(=O)N(Cc1cc(=O)[nH]c2ccccc12)c1cccc(C)c1,-8.96%
6,Cc1ccc(NC(=O)CSCc2cc(=O)n3cc(C)sc3n2)c(C)c1,7.65%
7,CCN(CC)C(=O)CSc1nnc([C@@H](NC(=O)OC(C)(C)C)C(C)C)o1,-7.92%
8,COc1ccc(-n2c(SCC(=O)Nc3nccs3)nc3sc4c(c3c2=O)CCN(C)C4)cc1,1.65%
9,Cl.NC(N)=Nc1nc2ccc(Br)cc2c(=O)[nH]1,2.28%
10,COc1ccc(NS(=O)(=O)c2cc(NC(=O)CNC(=O)c3cccc(OC)c3)ccc2C)cc1,7.88%
11,O=C(COC(=O)c1ccc(N2CCCC2=O)cc1)c1ccccc1,4.94%
12,CCCCOc1ccc(S(=O)(=O)N2CCCCCC2)cc1,-18.8%
13,c1ccc(Cn2ncc3ccccc32)cc1,0.449%
14,CS(=O)(=O)c1ccc(Cl)c(NC(=O)CSC(=S)N2CCCC2)c1,14.6%
15,O=C(O)c1cccc2c1-c1ccccc1/C2=N\Nc1ccccc1,25.9%
16,COc1ccc(CNC(=O)[C@@H](NC(=O)C2CCN(C(=O)[C@@H](N)Cc3ccccc3)CC2)C(C)C)cc1,0.905%
17,CCC(C)N(C(=O)COC(=O)c1cn(CC)c2nc(C)ccc2c1=O)C1CCS(=O)(=O)C1 (centres unmarked),21.4%
18,CCCCN1C(=O)NC(=O)C2(Cc3cc(C)ccc3N(C)C2)C1=O (centres unmarked),0.769%
19,COC(=O)C1(Cc2cc(-c3cccc(Br)c3)no2)CCN(C(=O)OC(C)(C)C)CC1,-4.92%
20,COc1ccc(/C=N/NC(=O)CSc2nnc(C)n2-c2ccccc2)c(OC)c1OC,13.8%
21,Cc1[nH]c2ccccc2c(=O)c1CN1CCCCCC1,-7.41%
22,Fc1ccccc1Oc1nc(-c2ccncc2)nc2ccccc12,10.1%

row,Compound,"hERG current change (%, negative = inhibition) at 10uM"
1,CCCCC(=O)Nc1cccc(NC(=O)c2cccc(Br)c2)c1,0.0981%
2,CCN1C(=O)[C@H]2[C@@H](c3ccc(-c4ccc(F)cc4)cc3)N3CCCC[C@@]3(C(=O)OC)[C@H]2C1=O.O=C(O)C(F)(F)F,3.9%
3,CC(C)Cc1nc(SCC(=O)N2CC(C)OC(C)C2)c2c(=O)n(C)c(=O)n(C)c2n1 (centres unmarked),-5.3%
4,O=C(NCCO)C1CCN(C(=O)c2ccc(-c3ccccc3)cc2)CC1,15.1%
5,O=C(CCc1nc(-c2ccccc2Cl)no1)NCc1ccco1,2.62%
6,CCN(C(=O)Cn1nc(C(=O)O)c2ccccc2c1=O)C1CCCCC1,-6.42%
7,Cc1ccccc1OCCCC(=O)Nc1ccc(N2CCOCC2)cc1,-1.97%
8,C[C@@H](NC(=O)[C@@H]1Cc2ccccc2CN1)C(=O)Nc1ccc2c(c1)OCO2,-1.88%
9,NC(=O)c1nsc(C(=O)N(CC(=O)NC2CCCCC2)c2ccc(Cl)cc2)c1N,-8.62%
10,CSc1nnc(-c2nnc(SC)n2-c2ccccc2)n1-c1ccccc1,-9.96%
11,COc1ccccc1N1CCN(CC(=O)NC(=O)NCc2ccco2)CC1,-0.631%
12,COc1ccc(/C=C/C(=O)c2ccc(C)c([N+](=O)[O-])c2)cc1O,14.3%
13,COC(=O)c1cc(N=Nc2sc(N)nc2C)cc(C(=O)OC)c1,-27.2%
14,Cc1cc(CC(=O)O)c(C)cc1CC(=O)O,-1.77%
15,COCCN(C(=O)CCC(=O)Nc1cc(C)on1)C(C(=O)NC(C)(C)C)c1ccccc1Cl (centres unmarked),22.6%
16,CCC1C(c2ccccc2)N(C)C(c2ccccc2)CC1(O)c1ccccc1.Cl (centres unmarked),11.3%
17,Cc1c(NC(=O)CN2CCN(c3ccc(F)cc3)CC2)c(=O)n(-c2ccccc2)n1C,0.675%
18,CCN(CC)S(=O)(=O)c1cccc(C(=O)NCCCN2CCOCC2)c1,9.9%
19,Nc1cnc(Nc2ccc(Br)cc2)nc1N.O=S(=O)(O)O,-8.72%
20,O=C(Nc1cccnc1)c1cc(F)cc(F)c1,13.4%
21,CCCc1nc(SCC(=O)Nc2cc(C)on2)c2ccccc2n1,1.5%
22,COc1ccc(C(=O)CCN2CCN(c3ccc(OC)cc3)CC2)cc1,-73.1%
